± gives the uncertainty stated by the source. The sequences are guide strands of siRNAs; only the seed at positions 2 to 7 varies.
Experiments:
HeyA8 = experiment: cell viability relative to lipid-only control; higher = less toxic; conditions: concentration: 10 nM; 96 h; Homo sapiens
H460 = experiment: as above; conditions: concentration: 10 nM; 96 h; Homo sapiens
M565 = experiment: as above; conditions: concentration: 10 nM; 96 h; Mus musculus
3LL = experiment: cell viability relative to siNT1 control; HeyA8 human ovarian and H460 human lung cancer; M565 mouse liver and 3LL mouse lung cancer; siNT1 is a non-toxic control siRNA; higher = less toxic; conditions: concentration: 10 nM; 96 h; Mus musculus
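Throughout, for cell viability relative to lipid-only control: reverse lipid transfection in 384-well plates, in triplicate, of duplexes on a non-toxic 19mer backbone with passenger strand 2′-O-methylated at positions 1 and 2, luminescence viability read-out.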
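Throughout, for cell viability relative to siNT1 control: Luminescence-based viability of cells reverse transfected in 384-well plates with lipid-complexed siRNAs built on a non-toxic 19mer backbone whose passenger strand carries 2′-O-methyl groups at positions 1 and 2, triplicates.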

| Sequence | cell viability (HeyA8) | cell viability (H460) | cell viability (M565) | cell viability (3LL) |
| --- | --- | --- | --- | --- |
| UGGAACGACAUGUAAACCAAA | 75.7 ± 5.6% | 83.8 ± 13% | 43.7 ± 8% | 99.7 ± 14% |
| UGGAACUACAUGUAAACCAAA | 59.9 ± 5.8% | 48.9 ± 5.6% | 24.1 ± 2.6% | 39.8 ± 12% |
| UGGAAGAACAUGUAAACCAAA | 62.5 ± 2% | 53.7 ± 7.8% | 18.8 ± 3.3% | 82.4 ± 4.9% |
| UGGAAGCACAUGUAAACCAAA | 24.5 ± 3% | 44 ± 7.4% | 8.72 ± 5.5% | 16.5 ± 1.8% |
| UGGAAGGACAUGUAAACCAAA | 50.4 ± 5% | 41.5 ± 4.1% | 15.3 ± 1% | 25.2 ± 5.2% |
| UGGAAGUACAUGUAAACCAAA | 46.7 ± 7.7% | 54.9 ± 9.7% | 10.1 ± 2.6% | 30.6 ± 3.2% |
| UGGAAUAACAUGUAAACCAAA | 91.6 ± 13% | 64 ± 7.9% | 41 ± 4.5% | 101 ± 11% |
| UGGAAUCACAUGUAAACCAAA | 32.7 ± 2.9% | 35.8 ± 4.8% | 14.9 ± 3.3% | 32.5 ± 4.7% |
| UGGAAUGACAUGUAAACCAAA | 45.5 ± 4.1% | 55.1 ± 1.8% | 15.8 ± 2.9% | 97.9 ± 7.1% |
| UGGAAUUACAUGUAAACCAAA | 59.2 ± 3.4% | 56.3 ± 13% | 50.9 ± 9.3% | 101 ± 10% |
| UGGACAAACAUGUAAACCAAA | 83.5 ± 1.4% | 64.9 ± 6.9% | 18.3 ± 6.7% | 66.5 ± 3.4% |
| UGGACACACAUGUAAACCAAA | 74 ± 7.6% | 38 ± 1.5% | 21.2 ± 3.2% | 44.2 ± 5.6% |
| UGGACAGACAUGUAAACCAAA | 55.8 ± 3.1% | 47.5 ± 4.4% | 6.73 ± 1.2% | 35 ± 7.6% |
| UGGACAUACAUGUAAACCAAA | 64.3 ± 5.6% | 54.1 ± 5.4% | 15.4 ± 6.2% | 79.8 ± 3.4% |
| UGGACCAACAUGUAAACCAAA | 76.1 ± 12% | 66.8 ± 13% | 8.31 ± 1.7% | 45.1 ± 6.8% |
| UGGACCCACAUGUAAACCAAA | 42 ± 1.8% | 58.5 ± 5.1% | 10.6 ± 3.9% | 13.4 ± 2.6% |
| UGGACCGACAUGUAAACCAAA | 79.7 ± 2.8% | 68.8 ± 9.4% | 10.8 ± 1.9% | 33.2 ± 3.6% |
| UGGACCUACAUGUAAACCAAA | 49.5 ± 5.8% | 50.9 ± 3.2% | 24.9 ± 2.2% | 34.8 ± 2.5% |
| UGGACGAACAUGUAAACCAAA | 53.2 ± 2.2% | 57.6 ± 10% | 24.3 ± 7.6% | 87.9 ± 3.6% |
| UGGACGCACAUGUAAACCAAA | 49.1 ± 6.1% | 37.4 ± 3% | 7.77 ± 2.1% | 34.7 ± 4.3% |

| Sequence | cell viability (HeyA8) | cell viability (H460) | cell viability (M565) | cell viability (3LL) |
| --- | --- | --- | --- | --- |
| UGGACGGACAUGUAAACCAAA | 40.4 ± 6% | 26.1 ± 3.2% | 16.3 ± 5.7% | 53.2 ± 3.9% |
| UGGACGUACAUGUAAACCAAA | 54.2 ± 2.3% | 35.3 ± 10% | 10.7 ± 4.1% | 54.9 ± 1.6% |
| UGGACUAACAUGUAAACCAAA | 85.4 ± 6.7% | 80.3 ± 14% | 22.9 ± 5.6% | 67.9 ± 4% |
| UGGACUCACAUGUAAACCAAA | 33.4 ± 4.8% | 45.9 ± 5.5% | 6.11 ± 0.19% | 23.4 ± 5.4% |
| UGGACUGACAUGUAAACCAAA | 50.3 ± 11% | 58.3 ± 12% | 17.8 ± 1.1% | 31.4 ± 3.4% |
| UGGACUUACAUGUAAACCAAA | 87.6 ± 7.3% | 67.6 ± 6.7% | 14.5 ± 2.6% | 58.1 ± 5.8% |
| UGGAGAAACAUGUAAACCAAA | 51.6 ± 25% | 72.2 ± 9.9% | 40.6 ± 11% | 84.2 ± 5.8% |
| UGGAGACACAUGUAAACCAAA | 54.2 ± 5.6% | 25.2 ± 1.3% | 26.6 ± 5.8% | 48.3 ± 2.6% |
| UGGAGAGACAUGUAAACCAAA | 21.3 ± 2.3% | 61.8 ± 7.2% | 17.2 ± 3.3% | 33.5 ± 1.2% |
| UGGAGAUACAUGUAAACCAAA | 27.2 ± 4.2% | 42.9 ± 5.6% | 22.2 ± 3.7% | 23.6 ± 5.2% |
| UGGAGCAACAUGUAAACCAAA | 20.4 ± 0.3% | 23.1 ± 1.3% | 6.15 ± 2.4% | 13.8 ± 4.1% |
| UGGAGCCACAUGUAAACCAAA | 5.4 ± 1.2% | 11.6 ± 1% | 8.84 ± 1.1% | 10.8 ± 6.5% |
| UGGAGCGACAUGUAAACCAAA | 15 ± 1.6% | 23.7 ± 1.1% | 7.75 ± 2% | 26 ± 1.7% |
| UGGAGCUACAUGUAAACCAAA | 2.22 ± 0.19% | 25.4 ± 1.3% | 2.4 ± 1% | 2.43 ± 1.2% |
| UGGAGGAACAUGUAAACCAAA | 3.02 ± 0.15% | 13.3 ± 3.8% | 18.4 ± 4.1% | 13.6 ± 4.4% |
| UGGAGGCACAUGUAAACCAAA | 3.53 ± 0.56% | 23.7 ± 2.8% | 5.31 ± 1.6% | 5.96 ± 1.3% |
| UGGAGGGACAUGUAAACCAAA | 6.54 ± 0.59% | 14.9 ± 2.6% | 4.25 ± 0.47% | 33 ± 4.7% |
| UGGAGGUACAUGUAAACCAAA | 2.1 ± 0.13% | 4.65 ± 0.41% | 2.86 ± 1.2% | 7.25 ± 2.5% |
| UGGAGUAACAUGUAAACCAAA | 81.8 ± 6% | 63.7 ± 8.3% | 59.1 ± 9.1% | 105 ± 17% |
| UGGAGUCACAUGUAAACCAAA | 11.1 ± 1% | 27.1 ± 5% | 15.9 ± 2.3% | 13.3 ± 3.7% |

| Sequence | cell viability (HeyA8) | cell viability (H460) | cell viability (M565) | cell viability (3LL) |
| --- | --- | --- | --- | --- |
| UGGAGUGACAUGUAAACCAAA | 17.4 ± 5.3% | 55.5 ± 1.4% | 57.7 ± 4.2% | 87.3 ± 19% |
| UGGAGUUACAUGUAAACCAAA | 36 ± 10% | 51.2 ± 8.9% | 33.7 ± 2.9% | 77.3 ± 3.2% |
| UGGAUAAACAUGUAAACCAAA | 83.7 ± 5.8% | 64.9 ± 7% | 54.2 ± 0.78% | 101 ± 11% |
| UGGAUACACAUGUAAACCAAA | 81.9 ± 7.4% | 63.6 ± 8.1% | 75.5 ± 15% | 71.1 ± 3.9% |
| UGGAUAGACAUGUAAACCAAA | 56.8 ± 5.4% | 45.8 ± 5.3% | 24.5 ± 6.8% | 87.4 ± 14% |
| UGGAUAUACAUGUAAACCAAA | 54.8 ± 12% | 61 ± 4.2% | 71.9 ± 18% | 88.4 ± 2.1% |
| UGGAUCAACAUGUAAACCAAA | 48.3 ± 1.8% | 53.2 ± 11% | 44.8 ± 6% | 51.6 ± 4% |
| UGGAUCCACAUGUAAACCAAA | 11.7 ± 1.5% | 50.8 ± 4.4% | 32.2 ± 7.3% | 15.2 ± 0.56% |
| UGGAUCGACAUGUAAACCAAA | 71.2 ± 9.7% | 71.9 ± 8.5% | 72.7 ± 13% | 81.8 ± 11% |
| UGGAUCUACAUGUAAACCAAA | 10.1 ± 1.4% | 36.8 ± 3.1% | 47.5 ± 9.9% | 74.7 ± 5.9% |
| UGGAUGAACAUGUAAACCAAA | 43.5 ± 6.5% | 53.8 ± 2.5% | 16.5 ± 2.8% | 96.9 ± 11% |
| UGGAUGCACAUGUAAACCAAA | 3.09 ± 0.48% | 23.8 ± 1.2% | 42.6 ± 10% | 20.6 ± 3.3% |
| UGGAUGGACAUGUAAACCAAA | 17 ± 0.7% | 23.6 ± 2.5% | 8.12 ± 1.6% | 74.2 ± 8.2% |
| UGGAUGUACAUGUAAACCAAA | 14.5 ± 4.4% | 60.2 ± 13% | 19 ± 5% | 20.7 ± 7.9% |
| UGGAUUAACAUGUAAACCAAA | 91.2 ± 11% | 77.3 ± 23% | 37.3 ± 3.4% | 92.6 ± 8.5% |
| UGGAUUCACAUGUAAACCAAA | 66.2 ± 3.6% | 55.5 ± 5.1% | 23.3 ± 1.9% | 93.4 ± 9.9% |
| UGGAUUGACAUGUAAACCAAA | 70.2 ± 4.9% | 61.9 ± 8.6% | 40.1 ± 7.9% | 95.5 ± 11% |
| UGGAUUUACAUGUAAACCAAA | 86.6 ± 9.3% | 71.8 ± 13% | 49.4 ± 8.1% | 104 ± 15% |
| UGGCAAAACAUGUAAACCAAA | 34.7 ± 2.2% | 72.1 ± 4.5% | 52.4 ± 8.1% | 72.1 ± 5.2% |
| UGGCAACACAUGUAAACCAAA | 50.21 ± 0.33% | 54.3 ± 3.3% | 22.2 ± 3.4% | 32.1 ± 2.9% |
